Experimental data published in the supplement of paper PMC12645437, “Orthogonal IMiD-Degron Pairs Induce Selective Protein Degradation in Cells” (ACS Chemical Biology, 2025).
The other results are listed elsewhere or left out.

target: no compound (DMSO); test: log2 fold change of degron read counts, EGFP-low vs EGFP+ sorted cells; higher = lower degron-EGFP level without compound (poor expression or instability); conditions: compound: DMSO control; 18 h
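Also: jurkat cells carrying a lentiviral library of mutant zinc finger degrons fused to EGFP plus mCherry, mCherry+ cells FACS sorted, degron abundance counted by next-generation sequencing.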

Question: With FQCEVCGAVFTQKGNLLRHIKL as the sequence, how does the “log2 fold change of degron read counts” value read?
Answer: -1.19

Question: Which “log2 fold change of degron read counts” value does the source give for FICPQCGARFTQKGNLLRHIKL here?
Answer: -0.249

Question: Which “log2 fold change of degron read counts” value does the source give for FHCEICGHPFTQKGNLLRHIKL here?
Answer: -0.000725

Question: With FECSVCGHHFTQKGNLLRHIKL as the sequence, how does the “log2 fold change of degron read counts” value read?
Answer: -0.879

Question: For FACPICGAGFTQKGNLLRHIKL, which “log2 fold change of degron read counts” value is on record?
Answer: -0.0546

Question: For FACNQCGHTFTQKGNLLRHIKL, which “log2 fold change of degron read counts” value is on record?
Answer: -1.41

Question: With FHCPICGAQFTQKGNLLRHIKL as the sequence, how does the “log2 fold change of degron read counts” value read?
Answer: -0.0161

Question: Which “log2 fold change of degron read counts” value does the source give for FGCPICGACFTQKGNLLRHIKL here?
Answer: 0.0742

Question: With FACPICGHMFTQKGNLLRHIKL as the sequence, how does the “log2 fold change of degron read counts” value read?
Answer: 0.106

Question: For FNCPICGAPFTQKGNLLRHIKL, which “log2 fold change of degron read counts” value is on record?
Answer: 0.495

Question: With FDCDICGAKFTQKGNLLRHIKL as the sequence, how does the “log2 fold change of degron read counts” value read?
Answer: -1.62

Question: With FSCNICGAPFTQKGNLLRHIKL as the sequence, how does the “log2 fold change of degron read counts” value read?
Answer: 0.398

Question: With FKCPICGANFTQKGNLLRHIKL as the sequence, how does the “log2 fold change of degron read counts” value read?
Answer: -0.109

Question: With FNCNQCGAVFTQKGNLLRHIKL as the sequence, how does the “log2 fold change of degron read counts” value read?
Answer: -0.445

Question: How did the “log2 fold change of degron read counts” value turn out when LVCEICGFGCTQKGNLLRHIKL was run?
Answer: 0.0516

Question: For FLCPICGREFTQKGNLLRHIKL, which “log2 fold change of degron read counts” value is on record?
Answer: -0.134

Question: Which “log2 fold change of degron read counts” value does the source give for LSCNQCGFKCTQKGNLLRHIKL here?
Answer: 0.205

Question: With FTCNQCGRFFTQKGNLLRHIKL as the sequence, how does the “log2 fold change of degron read counts” value read?
Answer: -0.107

Question: With FECEVCGAGFTQKGNLLRHIKL as the sequence, how does the “log2 fold change of degron read counts” value read?
Answer: -2.2

Question: Which “log2 fold change of degron read counts” value does the source give for FFCPVCGAPFTQKGNLLRHIKL here?
Answer: 0.491

Question: FLCEQCGAMFTQKGNLLRHIKL was tested. Which “log2 fold change of degron read counts” value did it give?
Answer: -1.3

Question: Which “log2 fold change of degron read counts” value does the source give for FTCPQCGAKFTQKGNLLRHIKL here?
Answer: -1.41

Question: How did the “log2 fold change of degron read counts” value turn out when FQCPICGHPFTQKGNLLRHIKL was run?
Answer: 0.261

Question: With FACNQCGACFTQKGNLLRHIKL as the sequence, how does the “log2 fold change of degron read counts” value read?
Answer: -0.887

Question: For FTCPICGRLFTQKGNLLRHIKL, which “log2 fold change of degron read counts” value is on record?
Answer: -0.317

Question: FFCPVCGAYFTQKGNLLRHIKL was tested. Which “log2 fold change of degron read counts” value did it give?
Answer: 1.39

Question: How did the “log2 fold change of degron read counts” value turn out when FSCPICGHMFTQKGNLLRHIKL was run?
Answer: 0.00181

Question: Which “log2 fold change of degron read counts” value does the source give for FVCEQCGADFTQKGNLLRHIKL here?
Answer: -3.17

Question: Which “log2 fold change of degron read counts” value does the source give for FVCPQCGAEFTQKGNLLRHIKL here?
Answer: -3.33

Question: With FMCDVCGAQFTQKGNLLRHIKL as the sequence, how does the “log2 fold change of degron read counts” value read?
Answer: -1.17

Question: FHCEVCGALFTQKGNLLRHIKL was tested. Which “log2 fold change of degron read counts” value did it give?
Answer: -1.49

Question: For FWCNICGAHFTQKGNLLRHIKL, which “log2 fold change of degron read counts” value is on record?
Answer: 1.01

Question: FNCPQCGAVFTQKGNLLRHIKL was tested. Which “log2 fold change of degron read counts” value did it give?
Answer: -0.63

Question: With FNCEICGHHFTQKGNLLRHIKL as the sequence, how does the “log2 fold change of degron read counts” value read?
Answer: -0.891

Question: Which “log2 fold change of degron read counts” value does the source give for FCCEQCGASFTQKGNLLRHIKL here?
Answer: -2.81

Question: FQCEICGAAFTQKGNLLRHIKL was tested. Which “log2 fold change of degron read counts” value did it give?
Answer: -1.9

Question: Which “log2 fold change of degron read counts” value does the source give for LACPICGFKCTQKGNLLRHIKL here?
Answer: 0.79

Question: How did the “log2 fold change of degron read counts” value turn out when FWCEICGHTFTQKGNLLRHIKL was run?
Answer: -1.38

Question: How did the “log2 fold change of degron read counts” value turn out when LKCNQCGFCCTQKGNLLRHIKL was run?
Answer: 0.54

Question: With FTCSVCGHGFTQKGNLLRHIKL as the sequence, how does the “log2 fold change of degron read counts” value read?
Answer: -0.656

Question: How did the “log2 fold change of degron read counts” value turn out when FVCDQCGAWFTQKGNLLRHIKL was run?
Answer: -0.12

Question: Which “log2 fold change of degron read counts” value does the source give for FRCDICGAPFTQKGNLLRHIKL here?
Answer: -0.286

Question: How did the “log2 fold change of degron read counts” value turn out when FKCNQCGANFTQKGNLLRHIKL was run?
Answer: -1.49

Question: Which “log2 fold change of degron read counts” value does the source give for FHCEQCGATFTQKGNLLRHIKL here?
Answer: -1.75

Question: Which “log2 fold change of degron read counts” value does the source give for FACEICGHEFTQKGNLLRHIKL here?
Answer: -1.6

Question: With FQCDICGAIFTQKGNLLRHIKL as the sequence, how does the “log2 fold change of degron read counts” value read?
Answer: -0.376

Question: With FFCPVCGACFTQKGNLLRHIKL as the sequence, how does the “log2 fold change of degron read counts” value read?
Answer: 0.432

Question: With FMCDICGACFTQKGNLLRHIKL as the sequence, how does the “log2 fold change of degron read counts” value read?
Answer: -1.24

Question: For FTCDVCGAIFTQKGNLLRHIKL, which “log2 fold change of degron read counts” value is on record?
Answer: -1.08

Question: Which “log2 fold change of degron read counts” value does the source give for FKCNVCGAFFTQKGNLLRHIKL here?
Answer: -0.0634
